Test results published in PubChem BioAssay AID686979 (National Center for Advancing Translational Sciences (NCATS), 2013).
About 50,000 (12%) of roughly 420,000 compounds were called active. The inconclusive results got no clear call from the source; some entries with a clear call stand among them for comparison. The call rests on the fitted dose curve; in most records, active means well fitted inhibition curve with a large enough effect; inconclusive means small, poorly fitted or top-dose-only effect; inactive means flat fitted curve, though single readings scatter. No potency is given beside an inconclusive call; the fits are too rough.

Assay: qHTS for Inhibitors of human tyrosyl-DNA phosphodiesterase 1 (TDP1): qHTS in cells in presence of CPT; further: nearly all actives have a fitted effect of over 55% in size
Conditions: chicken DT40 Tdp1-/-;hTDP1 cells + 20 nM CPT, ATP luminescence, 48 h; activity change, negative = growth inhibition: at 46.2 µM (top of the series) unless noted
Outline: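 Cell growth measured by CellTiter-Glo luminescence after a minimum 48 h, 37 C compound exposure with 20 nM CPT in Tdp1-knockout DT40 cells stably expressing hTDP1, seeded 400/well; qHTS titration format.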
On the % scale 0 is the no-effect control and ±100 the full control effect; potency means the concentration at half of the fitted maximal effect; tags describe the fitted curve by direction and shape.

| SMILES | Potency | activity change, negative = growth inhibition |
| --- | --- | --- |
| COc1ccccc1NS(=O)(=O)c1cc([N+](=O)[O-])ccc1N/N=C/c1c[nH]c2ccccc12 | inconclusive [inhibitor, single point] |  |
| CN(CC(=O)Nc1cc(Cl)ccc1-n1cncn1)Cc1ccccc1N1CCOCC1 | active: 23.1 µM |  |
| c1ccc2c(N3CCOCC3)c3c(nc2c1)CCC3 |  | inactive: -13.5% |
| Cc1cc(C)c(C)c(S(=O)(=O)N(C)C2CCN(C)CC2)c1C | active: 23.1 µM |  |
| Cn1cccc1C(=O)Nc1ccc(Cl)c(S(=O)(=O)N2CCCCC2)c1 | inconclusive [inhibitor, partial curve] |  |
| C[C@@H]1C(c2ccc(F)cc2)=NN(c2ccc(Br)cc2)[C@H]1C(=O)N1CCOC1=O | inconclusive [inhibitor, single point] |  |
| CC(=O)Nc1ccc(S(=O)(=O)N2CCN(c3nnnn3-c3ccccc3)CC2)cc1 |  | inactive: -11.9% |
| N#C/C(=C\c1ccncc1)c1nc2ccccc2[nH]1 | inconclusive [inhibitor, single point] |  |
| Cc1cc(C=Nc2ccc(/C=C/c3ccnc4ccccc34)cc2)ccc1N(C)C | active: 15.8 µM |  |
| O=C(c1cccc(F)c1)N1CCC(c2c[nH]c3ccccc23)(c2c[nH]c3ccccc23)CC1 | inconclusive [inhibitor, partial curve] |  |
| CCc1ccc(NC(=O)c2ccc(F)c(S(=O)(=O)N(CC)c3ccccc3)c2)cc1 | inconclusive [inhibitor, single point] |  |
| COc1ccc(C(=O)Nc2nnc(S(=O)(=O)N3CCC(C)CC3)s2)cc1OC | inconclusive [inhibitor, single point] |  |
| Clc1ccc(-n2ncc3c(N4CCCCCC4)ncnc32)cc1 | inconclusive [inhibitor, single point] |  |
| COc1ccc(C/C(N)=N/OC(C)=O)cc1OC | inconclusive [inhibitor, full curve] |  |
| COc1ccc(S(=O)(=O)N2CCOCC2)cc1NC(=O)c1ccc(=O)[nH]c1 |  | inactive: -17.8% |
| CCOc1ccc(NC(=O)NCCn2nnc3cc(S(=O)(=O)N(C)C)ccc32)cc1 |  | inactive: 9.25% |
| CCCCn1c(N)c(NCC)c(=O)[nH]c1=O | inconclusive [inhibitor, single point] |  |
| CC(C)c1ccc(-c2nnn(Cc3nc4ccccc4s3)n2)cc1 |  | inactive: 3.18% |
| O=C1CC(c2ccco2)CC2=C1C1c3ccccc3C(=O)N1c1ccccc1N2 (configuration not stated) | inconclusive [inhibitor, single point] |  |
| O=C(c1cccs1)N1CCN(c2ncc(C(F)(F)F)cc2Cl)CC1 | inconclusive [inhibitor, single point] |  |
| CC1CC(C)CN(C(=O)COC(=O)c2nn(C)c(=O)c3ccccc23)C1 (configuration not stated) |  | inactive: -1.78% |
| COc1ccccc1NC(=O)CC(=O)c1cccc([N+](=O)[O-])c1 |  | inactive: 9.49% |
| O=C(c1csnn1)N1CCC[C@@]2(CCN(Cc3cc(C(F)(F)F)cc(C(F)(F)F)c3)C2)C1 | inconclusive [inhibitor, single point] |  |
| CCc1c(C)nc(N)n2c(SCC(=O)N3CCCc4ccccc43)nnc12 | inconclusive [inhibitor, single point] |  |

| SMILES | Potency | activity change, negative = growth inhibition |
| --- | --- | --- |
| COc1ccc(Cl)cc1NC(=O)CCCC(=O)c1ccccc1 | active: 20.6 µM |  |
| O=C(c1ccco1)N1CCN(Cc2cn[nH]c2-c2cccc3ccccc23)CC1 | inconclusive [inhibitor, single point] |  |
| COc1ccc(CCNC(=O)COC(=O)/C=C/c2cc(OC)c(OC)c(OC)c2)cc1OC | inconclusive [inhibitor, single point] |  |
| COc1cccc(CNS(=O)(=O)c2ccc(N3CCCCS3(=O)=O)cc2)c1 | active: 23.1 µM |  |
| O=C(Nc1ccon1)Nc1ccccc1C(F)(F)F |  | inactive: -10.9% |
| Nc1nc(N)c2snnc2n1 |  | inactive: 1.6% |
| CCOC(=O)C1=C(CN2CCCCC2)NC(=O)NC1c1ccc(C)cc1 (configuration not stated) |  | inactive: -14% |
| C#Cc1ccc([C@H]2C=C(C(=O)N3CCN(Cc4ccccc4)CC3)O[C@@H](OCc3ccc(CO)cc3)C2)cc1 | active: 16.4 µM |  |
| CCOC(=O)C(Cc1c[nH]c2cc([N+](=O)[O-])ccc12)(NC(C)=O)C(=O)OCC |  | inactive: -26.2% |
| CC1CCCCN1Cc1c(O)ccc2c(=O)c(-c3ccccc3)coc12 (configuration not stated) | active: 8.2 µM |  |
| O=C(OCC(=O)N1N=C(c2ccc(Cl)cc2)CC1c1ccco1)c1ccccc1O (configuration not stated) | inconclusive [inhibitor, single point] |  |
| Cc1ccc(OCC(=O)Nc2c(C)nn(-c3ccccc3)c2C)c(Br)c1 | inconclusive [inhibitor, single point] |  |
| CCOC(=O)c1coc(C(=O)OCC)c1C(=O)OCC |  | inactive: -5.5% |
| COc1ccc(S(=O)(=O)Nc2c(NC3CCCCC3)c3ccccc3oc2=O)cc1OC | inconclusive [inhibitor, single point] |  |
| C[C@H]1CN([C@@H](C)CO)S(=O)(=O)c2ccc(Br)cc2O[C@@H]1CN(C)Cc1cccc(F)c1 | active: 16.4 µM |  |
| CCOc1ccc(C(CC(=O)Nc2cc(C)c(Cl)cc2OC)N2Cc3ccccc3C2=O)cc1OC (configuration not stated) | inconclusive [inhibitor, single point] |  |
| O=C(NCCCN1CCCC1)c1ccc2c(Cl)c3c(nc2c1)CCCC3 | inconclusive [inhibitor, single point] |  |
| CCN(CC)S(=O)(=O)c1ccc(N2CCOCC2)c(NC(=O)c2cc3ccccc3o2)c1 | inconclusive [inhibitor, single point] |  |
| Cc1nccn1CC(O)COc1ccccc1 (configuration not stated) |  | inactive: 1.51% |
| C#CCN(C(=O)c1cc(COc2ccc(C)c(C)c2)on1)C1CCCCC1 | inconclusive [inhibitor, single point] |  |
| COCCn1c(=O)cnc2cnc(N3CCNCC3)nc21 |  | inactive: 14.5% |
| COc1ccc(C=C(C(C)=O)C(=O)c2ccccc2)cc1 | inconclusive [inhibitor, single point] |  |
| CCCn1c(C)cc(=O)c2cc(NC(=O)c3ccccn3)ccc21 | inconclusive [inhibitor, single point] |  |
